This passage reports cAMP reporter score and surface expression score results from the GPR68 mutational scans of Howard et al. (2025).

Scores whose standard error is large were omitted. Two further conditions of the source, in which the scores hardly spread, are not listed. In variant names, del marks residues removed and ins residues inserted between the two positions. For some of these results: How much ogerin was present is not stated here.

B1: GPR68, Q15743 (parent)
chain: MGNITADNSSMSCTIDHTIHQTLAPVVYVTVLVVGFPANCLSLYFGYLQIKARNELGVYLCNLTVADLFYICSLPFWLQYVLQHDNWSHGDLSCQVCGILLYENIYISVGFLCCISVDRYLAVAHPFRFHQFRTLKAAVGVSVVIWAKELLTSIYFLMHEEVIEDENQHRVCFEHYPIQAWQRAINYYRFLVGFLFPICLLLASYQGILRAVRRSHGTQKSRKDQIQRLVLSTVVIFLACFLPYHVLLLVRSVWEASCDFAKGVFNAYHFSLLLTSFNCVADPVLYCFVSETTHRDLARLRGACLAFLTCSRTGRAREAYPLGAPEASGKSGAQGEEPELLTKLHPAFQTPNSPGSGGFPTGRLA

The variants in series [1] derive from B1. The series is described as follows: cAMP reporter score (Enrich2 score, wild type = 0); higher = more signal; HEK293T, FACS bins.
The variants in series [2] derive from B1. The series is described as follows: surface expression score (Enrich2 score, wild type = 0); higher = more signal; HEK293T, FACS bins.

Consider F111_L112del, for which the cAMP reporter score in series [1] (pH 5.5) was -2.16; in series [1] (pH 6), -2.16; in series [1] (pH 6, modulator: ogerin) it was -0.801; in series [1] (pH 6.5, modulator: ogerin), -1.11. The surface expression score in series [2] is -1.04.

Regarding S108R, the cAMP reporter score is -0.412 in series [1] (pH 5.5); -1.81 in series [1] (pH 6); -0.395 in series [1] (pH 6.5, modulator: ogerin).

For the variant S108C, the cAMP reporter score in series [1] (pH 5.5) is 0.41; in series [1] (pH 6) it was 0.916; in series [1] (pH 6, modulator: ogerin), 0.035; in series [1] (pH 6.5, modulator: ogerin), -0.204.

Regarding S108I, the cAMP reporter score was -0.482 in series [1] (pH 5.5) and -0.427 in series [1] (pH 6.5, modulator: ogerin).

As to S108Y, the cAMP reporter score in series [1] (pH 5.5) is -1.27; in series [1] (pH 6), -0.319; in series [1] (pH 6, modulator: ogerin), -1.08; in series [1] (pH 6.5, modulator: ogerin), -0.709. Also, in series [2], the surface expression score is -1.42.

On to S108L, for which the cAMP reporter score is -2.11 in series [1] (pH 5.5); -0.711 in series [1] (pH 6); -1.71 in series [1] (pH 6, modulator: ogerin); -1.28 in series [1] (pH 6.5, modulator: ogerin). For the same variant, the surface expression score in series [2] is -2.66.

Regarding S108E, the cAMP reporter score in series [1] (pH 5.5) was -1.14; in series [1] (pH 6, modulator: ogerin), -1.78; in series [1] (pH 6.5, modulator: ogerin), -2.1. The surface expression score in series [2] is -1.76.

With S108T, the cAMP reporter score in series [1] (pH 5.5) was determined as 1.81; in series [1] (pH 6), 2.21; in series [1] (pH 6, modulator: ogerin) it was 1.67; in series [1] (pH 6.5, modulator: ogerin), 0.578.

Turning to S108W, the cAMP reporter score is -1.82 in series [1] (pH 5.5); -1.14 in series [1] (pH 6); -0.902 in series [1] (pH 6, modulator: ogerin); -1.45 in series [1] (pH 6.5, modulator: ogerin). Also, in series [2], the surface expression score is -2.26.

S108F: the cAMP reporter score in series [1] (pH 5.5) is -1.05; in series [1] (pH 6) it was -0.614; in series [1] (pH 6, modulator: ogerin), -1.58; in series [1] (pH 6.5, modulator: ogerin) it was -1.1. Besides, the surface expression score in series [2] was -1.18.

On to S108Q, for which the cAMP reporter score is -0.486 in series [1] (pH 5.5) and -1.52 in series [1] (pH 6, modulator: ogerin).

As to S108H, the cAMP reporter score is 0.774 in series [1] (pH 5.5); -0.696 in series [1] (pH 6); -0.44 in series [1] (pH 6, modulator: ogerin); 0.06 in series [1] (pH 6.5, modulator: ogerin). The surface expression score in series [2] turned out to be 2.04.

On to S108A, for which the cAMP reporter score was determined as 0 in series [1] (pH 5.5); 2.37 in series [1] (pH 6); 0.431 in series [1] (pH 6, modulator: ogerin); 2.27 in series [1] (pH 6.5, modulator: ogerin). Also, the surface expression score in series [2] was -1.77.

For the variant S108G, the cAMP reporter score was -0.266 in series [1] (pH 5.5); -0.917 in series [1] (pH 6); -0.561 in series [1] (pH 6, modulator: ogerin); -1.45 in series [1] (pH 6.5, modulator: ogerin). The surface expression score in series [2] is -0.867.

With S108D, the cAMP reporter score is -1.85 in series [1] (pH 5.5) and 0.051 in series [1] (pH 6.5, modulator: ogerin).

With S108V, the cAMP reporter score in series [1] (pH 5.5) was found to be 0.308; in series [1] (pH 6), 3.88; in series [1] (pH 6, modulator: ogerin) it was 0.226; in series [1] (pH 6.5, modulator: ogerin) it was 1.15. In addition, in series [2], the surface expression score is -1.65.

Regarding S108N, the cAMP reporter score was -0.297 in series [1] (pH 5.5); -0.058 in series [1] (pH 6); -1.14 in series [1] (pH 6, modulator: ogerin); 0.158 in series [1] (pH 6.5, modulator: ogerin). Also, the surface expression score in series [2] was -0.971.

For S108K, the cAMP reporter score in series [1] (pH 5.5) was -0.113; in series [1] (pH 6), 1.48; in series [1] (pH 6, modulator: ogerin), -0.661; in series [1] (pH 6.5, modulator: ogerin), -0.33. The surface expression score in series [2] was found to be 0.504.

With I115_S116del, the cAMP reporter score in series [1] (pH 5.5) is -1.24; in series [1] (pH 6), -0.832; in series [1] (pH 6, modulator: ogerin), -0.806; in series [1] (pH 6.5, modulator: ogerin) it was -1.17. Moreover, the surface expression score in series [2] was -2.26.

G110del: the cAMP reporter score in series [1] (pH 5.5) is -1.08; in series [1] (pH 6, modulator: ogerin) it was -1.47; in series [1] (pH 6.5, modulator: ogerin), -1.78. In series [2], the surface expression score is -2.09.

Take F111N: the cAMP reporter score in series [1] (pH 5.5) was -1.63; in series [1] (pH 6) it was -1.23; in series [1] (pH 6.5, modulator: ogerin), -2.03. Further, the surface expression score in series [2] was -2.66.

Turning to F111L, the cAMP reporter score in series [1] (pH 5.5) is -1.32; in series [1] (pH 6), -0.006; in series [1] (pH 6, modulator: ogerin) it was -1.04; in series [1] (pH 6.5, modulator: ogerin), -1.04. For the same variant, the surface expression score in series [2] was -1.97.

Turning to F111D, the cAMP reporter score in series [1] (pH 5.5) is -1.16; in series [1] (pH 6) it was -1.53; in series [1] (pH 6.5, modulator: ogerin), -0.888. In series [2], the surface expression score is -3.27.

For the variant F111W, the cAMP reporter score in series [1] (pH 5.5) was -0.387; in series [1] (pH 6, modulator: ogerin), -0.308; in series [1] (pH 6.5, modulator: ogerin) it was -0.579. Besides, the surface expression score in series [2] was -2.13.

As for F111H, the cAMP reporter score in series [1] (pH 5.5) is -2.66; in series [1] (pH 6), -0.702; in series [1] (pH 6, modulator: ogerin), -0.707; in series [1] (pH 6.5, modulator: ogerin), -0.436.

With F111M, the cAMP reporter score is -1.16 in series [1] (pH 5.5); -1.19 in series [1] (pH 6); -1.61 in series [1] (pH 6, modulator: ogerin); -1.15 in series [1] (pH 6.5, modulator: ogerin). Also, the surface expression score in series [2] was -1.71.

Take F111P: the cAMP reporter score in series [1] (pH 5.5) was -0.557; in series [1] (pH 6, modulator: ogerin) it was -0.789; in series [1] (pH 6.5, modulator: ogerin), -0.912. The surface expression score in series [2] is -1.3.

For the variant F111Q, the cAMP reporter score was -1.92 in series [1] (pH 5.5); -0.756 in series [1] (pH 6); -0.81 in series [1] (pH 6, modulator: ogerin); -0.791 in series [1] (pH 6.5, modulator: ogerin). The surface expression score in series [2] was -2.4.

For F111E, the cAMP reporter score in series [1] (pH 5.5) was -1.28; in series [1] (pH 6, modulator: ogerin), -0.852; in series [1] (pH 6.5, modulator: ogerin) it was -0.996. The surface expression score in series [2] was -2.38.

Regarding F111G, the cAMP reporter score in series [1] (pH 5.5) is -0.41; in series [1] (pH 6) it was -0.534; in series [1] (pH 6, modulator: ogerin), -0.646. Further, in series [2], the surface expression score is -0.767.

For the variant F111C, the cAMP reporter score was -1.36 in series [1] (pH 5.5); -0.713 in series [1] (pH 6); -1.3 in series [1] (pH 6, modulator: ogerin); -1.59 in series [1] (pH 6.5, modulator: ogerin). For the same variant, the surface expression score in series [2] was -1.84.

As to F111V, the cAMP reporter score was -0.48 in series [1] (pH 5.5); -0.793 in series [1] (pH 6); -1.6 in series [1] (pH 6, modulator: ogerin); -2.56 in series [1] (pH 6.5, modulator: ogerin). In addition, the surface expression score in series [2] is -3.11.

In the case of F111S, the cAMP reporter score in series [1] (pH 5.5) was -0.899; in series [1] (pH 6), -0.919; in series [1] (pH 6, modulator: ogerin), -1.42; in series [1] (pH 6.5, modulator: ogerin) it was -1.15. Besides, the surface expression score in series [2] was -2.15.

On to F111R, for which the cAMP reporter score was -0.403 in series [1] (pH 5.5) and -1.32 in series [1] (pH 6).

Take F111I: the cAMP reporter score in series [1] (pH 5.5) is -0.375; in series [1] (pH 6, modulator: ogerin) it was -0.674. The surface expression score in series [2] was -0.806.
